Measured values as given in patent US20080033007A1, “Substituted Tetrahydroisoquinoline Compounds for Cancer Therapy” (priority 2002, published 2008).

Experiments:
[1] = system: normal cultured rat astrocytes; experiment: differential culture cytotoxicity assay, normal astrocytes; format: cell-based; conditions: Astrocyte, 96 h, percent survival vs concentration
Procedure: (§1) Normal cultured rat astrocytes and C6 rat glioma were used as a differential screen for a variety of 1,2,3,4-tetrahydroisoquinoline derivatives. […] To explore structure activity relationships (SAR) a number of 1,2,3,4-tetrahydroisoquinolines 2, 4, 5, 7, and 8 were synthesized and tested for antiglioma activity.
(§2) The astrocytes primary culture was derived from neonatal (4-8 days postpartum) rat pups as described by Geisert et al. The primary cultures were prepared as per McCarthy et al. Briefly, the rat pups were anesthetized on ice, decapitated, and the brains were removed. The cerebral cortex was removed, stripped of the meninges, and cut into small pieces of approximately 1 mm^2. The tissue was placed in 0.1% trypsin for 15 min and gently pipetted to produce a single cell suspension. The cell suspension was then rinsed in media and transferred to culture flasks. […]
(§3) The experimental treatment was the incubation of the cells with test compound for 96 h at 37° C., 5% CO2. The cells were fixed with 4% formaldehyde, stained with 0.1% cresylecth violet stain, and quantitated as per Wagner et a. […]
(§4) The cytotoxic character of each compound was reported as the percent survival, calculated as the average A560 for treated cells divided by A560 of untreated (negative control) cells, and expressed as a percentage. […]

C6 glioma cells = experiment: survival of C6 glioma cells after 96 hr treatment (Example 5); format: cell-based; conditions: Rattus norvegicus, read-out: EC50, C6 glioma cell survival
C6 rat glioma = experiment: differential culture cytotoxicity assay, C6 glioma; conditions: 96 h, read-out: IC50 (μM) C6 Glioma, 96 h, percent survival vs concentration
Procedure: as §1, §2, §3, §4

Cl.Oc1cc2c(cc1O)C(Cc1ccc(-c3ccccc3)cc1)NCC2 (racemic) [MMGS-155]
IC50 [1]: ~29 µM | EC50 (C6 glioma cells): 2300 ± 770 nM | IC50 (C6 rat glioma): ~2.6 µM
